Measurements taken from PubChem BioAssay AID938 (National Center for Advancing Translational Sciences (NCATS), 2007).
Values joined by “and” are separate entries in the source; they are usually repeats but may differ in a detail not shown here. Identical values can stand only once. The campaign covered roughly 73,000 compounds. About 1,800 (2.5%) were called active. This list was built around the results that the source calls inconclusive (neither active nor inactive); the mix of calls is not that of the screen. Calls come from the whole dose curve; as a rule, active = well fitted activation curve with a large enough effect; inconclusive = small, poorly fitted or top-dose-only effect; inactive = no such curve, though single readings can be large or run the other way. Potencies of inconclusive entries are doubtful fits and often do not repeat.

Assay: qHTS Assay for Agonists of the Thyroid Stimulating Hormone Receptor: Activators of Intracellular cAMP Concentrations in Parental HEK 293; note: nearly all actives have a fitted effect of over 55% in size; for activation: % of control where 0% means no effect
Settings: parental HEK293 CNG cAMP sensor, membrane potential fluorescence; activation: at 57.1 µM (top of the series) unless noted
Outline: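 Counterscreen for endogenous-receptor signalling: CNG-channel HEK 293 cells report cAMP rise by membrane depolarization. After 60 min dye equilibration with 100 uM RO 20-1724, compounds incubated 30 min before bottom-read fluorescence at 590 nm.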
Potency is the fitted concentration of half-maximal effect; tags give direction and shape of the fitted curve.

Row | Compound | activation | Potency
1 | CC1Cc2c(-c3ccccc3)nc3c(c2CO1)CN(CCOc1ccccc1)CC3 (stereo unspecified) | inactive: 4.86% [at 11.4 µM] | 
2 | COc1ccc(OC)c(NC2=NC3(CCCC3)N=C(N)N2)c1 | inactive: 2.2% | 
3 | CC1=C(C(=O)OC(C)C)C(c2cccnc2)n2ncnc2N1 (stereo unspecified) |  | inconclusive: 39.8 µM [activator, single point]
4 | Cc1cc(C)c2c(CN3CCN(C)CC3)cc(=O)oc2c1 | inactive: 20% | 
5 | Cc1ccc(CN2CCN(CC(=O)N3CCC(C(N)=O)CC3)C2=O)cc1 | inactive: 3.32% | 
6 | O=C(Cc1ccsc1)NCC(c1ccco1)N1CCCCC1 (stereo unspecified) |  | inconclusive: 31.6 µM [activator, single point]
7 | C#C[C@]1(O)CC[C@@H]2[C@H]3CCC4=Cc5oncc5C[C@]4(C)[C@@H]3CC[C@@]21C | inactive: 12.8% [at 25.6 µM] | 
8 | O=C(c1cc2c(s1)-c1ccccc1OC2)N1CCN(c2ccccn2)CC1 |  | inconclusive: 15.8 µM [activator, partial curve]
9 | O=C1Nc2ccccc2C12Nc1ccccc1-c1nc3ccccc3n12 (stereo unspecified) | inactive: 8.11% | 
10 | C[C@@]12CC[C@@H]3[C@H](CCC4=CC(=O)CC[C@]43C)[C@@H]1CC[C@@H]2C(=O)Cn1cnc2c(=S)nc[nH]c21 | inactive: -4.07% [at 11.4 µM] | 
11 | Cc1cc(C)c2nc(SCC#N)cc(C)c2c1 |  | inconclusive: 39.8 µM [activator, single point]
12 | CCCN(CCC)c1nc(C)cc(C(C#N)c2nc3ccccc3o2)n1 (stereo unspecified) | inactive: 7.29% | 
13 | Cc1c(C(=O)N(C)Cc2ccccc2)oc2ccc(S(=O)(=O)N3CCCC3)cc12 |  | inconclusive: 25.1 µM [activator, single point]
14 | CN(C)c1nc2ccc(OCCN3CCCCC3)cc2s1 |  | inconclusive: 5.01 µM [activator, partial curve]
15 | COc1ccc(CN(C(=O)c2cccs2)c2nccs2)cc1OC |  | inconclusive: 15.8 µM [activator, partial curve]
16 | C=CC(=O)OCCOCCOCCOCCOC(=O)C=C |  | inconclusive: 39.8 µM [activator, single point] and inconclusive: 316 nM [activator, full curve, poor fit]
17 | CCOC(=O)CSc1nc2sc(C(=O)O)c(C)c2c(=O)[nH]1 |  | inconclusive: 0.0079 µM [activator, full curve, poor fit]
18 | CCOc1ccc(-c2noc(-c3ccncc3)n2)cc1OCC | inactive: 0.624% | 
19 | OC(COc1ccc(Br)cc1)CN1CCOCC1 (stereo unspecified) |  | inconclusive: 6.31 µM [activator, single point]
20 | Cc1ccc(NC(=O)CSc2nnc(Cc3cccn3C)n2-c2ccc(F)cc2)c(C)c1 |  | inconclusive: 6.31 µM [activator, single point]
21 | COc1ccc(Nc2cc(=O)n(C3CCCCC3)c(=O)[nH]2)c(OC)c1 |  | inconclusive: 39.8 µM [activator, single point]
22 | CCN(CC)CCNC(=O)c1cn(C)c2ccc(S(=O)(=O)N(C)C3CCCCC3)cc2c1=O |  | inconclusive: 3.98 µM [activator, single point]
23 | O=C(COc1cccc(NC(=O)c2ccco2)c1)c1ccc(F)cc1 |  | inconclusive: 31.6 µM [activator, single point]
24 | Cc1ccccc1NC(=O)Cn1c(=O)n(C)c2ccccc21 |  | inconclusive: 25.1 µM [activator, single point]

Row | Compound | activation | Potency
25 | CS(=O)(=O)Nc1ccc(C(=O)NCC2CCCO2)cc1 (stereo unspecified) |  | inconclusive: 31.6 µM [activator, single point]
26 | COc1cccc(Cn2c(=O)c(C)nc3cnc(Nc4cccc(OC)c4)nc32)c1 |  | inconclusive: 12.6 µM [activator, partial curve]
27 | Nc1nc2c(nc(Br)n2[C@@H]2O[C@H]3COP(=O)(O)O[C@@H]3[C@H]2O)c(=O)[nH]1 |  | inconclusive: 0.0316 µM [activator, full curve, poor fit]
28 | CCOC(=O)c1cccc(NC(=O)CS(=O)(=O)Cc2nc(-c3cccc(OC)c3)oc2C)c1 |  | inconclusive: 25.1 µM [activator, single point]
29 | Cc1cccc(Cn2c(=O)n(Cc3ccco3)c(=O)c3ccccc32)c1 |  | inconclusive: 39.8 µM [activator, single point]
30 | Cc1ccccc1OCC(O)Cn1c(=N)n(CCN2CCOCC2)c2ccccc21 (stereo unspecified) |  | active: 10 µM
31 | CN(C)CCCNc1cc(O)c2c(c1O)C(=O)c1ccccc1C2=O | inactive: -25.9% [at 11.4 µM] | 
32 | COc1ccc2cc(CCNC(=O)C(C)(C)C)c(=O)[nH]c2c1 |  | inconclusive: 39.8 µM [activator, single point]
33 | CN(C/C=C\c1ccccc1)Cc1cccc2ccccc12 |  | inconclusive: 15.8 µM [activator, single point]
34 | Cc1ccc2cc(C)c3nnc(SCC(=O)NCc4ccco4)n3c2c1 | inactive: -7.41% | 
35 | CCCc1ccc(-c2ccc(F)c(N)c2)nc1 | inactive: -1.21% | 
36 | COC(=O)c1ccc(CSc2ncnc3c2oc2ccccc23)o1 |  | inconclusive: 39.8 µM [activator, single point]
37 | COc1ccc(C(=O)CSc2nnc(COc3ccccc3)n2Cc2ccco2)cc1 |  | active: 15.8 µM
38 | COc1ccccc1C(=O)N1CCN(C(=O)c2ccncc2)CC1 |  | active: 25.1 µM
39 | CC1(Cc2cn(CCC#N)c3ccccc23)OCCO1 | inactive: 15.3% | 
40 | CN(Cc1ccccc1)c1nc2c(c(=O)[nH]c(=O)n2C)n1CCOc1ccccc1 | inactive: 0.222% | 
41 | O=C(CN1C(=O)COc2ccccc21)N(Cc1ccc2c(c1)OCO2)CC1CCCO1 (stereo unspecified) |  | inconclusive: 5.01 µM [activator, full curve]
42 | COc1cc(OC)cc(-c2nnc(SCC(=O)N(C(C)C)C(C)C)o2)c1 | inactive: 24.2% | 
43 | C[N+]1(C)CCO[C@](O)(c2ccccc2)C1 | inactive: -4.28% [at 11.4 µM] | 
44 | CC(NC(=O)c1ccccc1NC(=O)c1ccco1)C(=O)O (stereo unspecified) | inactive: 6.47% | 
45 | Nc1nc(N2CCOCC2)nc2ccccc12 | inactive: -15.5% | 
46 | OC12CCCCC1C(c1ccc3c(c1)OCO3)N(Cc1cccc(F)c1)CC2 (stereo unspecified) |  | inconclusive: 31.6 µM [activator, single point]
47 | CC1(C)CC(CC(=O)O)(c2ccccc2)CCO1 (stereo unspecified) |  | inconclusive: 6.31 µM [activator, single point]
48 | O=C1O/C(=C\Br)CC[C@@H]1c1cccc2ccccc12 | inactive: 2.81% | 

Row | Compound | activation | Potency
49 | c1ccc(COc2cccc(CN3CCN(c4ccccn4)CC3)c2)cc1 |  | inconclusive: 20 µM [activator, partial curve]
50 | Cc1onc(-c2ccccc2)c1C(=O)Nc1nnc(COc2ccc(Cl)cc2)s1 |  | inconclusive: 6.31 µM [activator, single point]
51 | COc1ccc(C)cc1-n1nnnc1SCc1nc2ccccc2s1 |  | inconclusive: 0.158 µM [activator, full curve, poor fit]
52 | Fc1ccc(Br)cc1C1C=C(c2ccc(Br)s2)Nc2ncnn21 (stereo unspecified) |  | inconclusive: 20 µM [activator, single point]
53 | COc1ccc(OC)c(C(=O)CC2OC(=O)c3ccccc32)c1 (stereo unspecified) |  | inconclusive: 1 µM [activator, full curve]
54 | O=C(NCCc1c[nH]c2ccccc12)c1ccc(S(=O)(=O)NCc2ccco2)cc1 | inactive: -24.7% | 
55 | O=C(CSc1nnc(-c2cccs2)n1-c1ccccc1)NCC1CCCO1 (stereo unspecified) |  | inconclusive: 39.8 µM [activator, single point]
56 | CCOc1cccc(-c2cc(C(=O)N/N=C/c3cccc(OC)c3O)[nH]n2)c1 | inactive: 8.48% | 
57 | O=C(CSC1=NCCS1)Nc1nc(-c2ccccc2)cs1 |  | inconclusive: 7.94 µM [activator, partial curve]
58 | O=C(O)CN(CCN(CC(=O)O)CC(=O)O)CC(=O)O.[Mn] | inactive: -8.97% [at 11.4 µM] | 
59 | CC(C)C(=O)Nc1nnc(CCc2nnc(NC(=O)C(C)C)s2)s1 |  | inconclusive: 25.1 µM [activator, single point]
60 | Cc1noc(C)c1COC(=O)c1cc(C)n(-c2ccccc2)c1C |  | inconclusive: 15.8 µM [activator, partial curve]
61 | CS(=O)(=O)c1ccc([C@H](O)[C@H](CF)NC(=O)C(Cl)Cl)cc1 | inactive: 4.79% [at 25.6 µM] | 
62 | Fc1ccc(-c2nnc(CN3CCN(c4ncc(C(F)(F)F)cc4Cl)CC3)o2)cc1 |  | inconclusive: 12.6 µM [activator, partial curve]
63 | COc1ccc(Cl)cc1NC(=O)c1oc(C)nc1C |  | inconclusive: 3.98 µM [activator, full curve]
64 | CC(=O)c1ccc(NC(=O)c2ccc(S(=O)(=O)N3CCCC3)cc2)cc1 |  | inconclusive: 39.8 µM [activator, single point]
65 | N#Cc1nc(COc2ccc(Cl)cc2Cl)oc1N1CCN(c2ccccc2)CC1 |  | inconclusive: 3.98 µM [activator, partial curve]
66 | CC(C)C[C@H](NC(=O)N1CCCCCC1)C(=O)N[C@H](Cc1cn(C)c2ccccc12)C(=O)N[C@H](Cc1ccccn1)C(=O)O | inactive: 5.94% | 
67 | COc1ccc(Cc2nnc3n2N=C(c2cc4ccccc4o2)CS3)cc1OC |  | active: 25.1 µM
68 | CCCCn1c(CN2CCN(c3cccc(Cl)c3)CC2)nc2c1c(=O)n(C)c(=O)n2C |  | inconclusive: 15.8 µM [activator, partial curve]
69 | Cc1cccc(S(=O)(=O)Nc2nc3ccccc3nc2NCc2ccco2)c1 |  | inconclusive: 31.6 µM [activator, single point]
70 | CC(C(=O)N1c2ccccc2Sc2ccccc21)n1nnc(-c2cccs2)n1 (stereo unspecified) |  | inconclusive: 25.1 µM [activator, single point]
71 | CC1(C)Cc2nc(N3CCOCC3)c(C#N)cc2CO1 |  | inconclusive: 7.94 µM [activator, single point]
